The other results are listed elsewhere or left out. The energies were worked out here from pooled read counts, against the library average; single values are noisy.

The target of this assay is T1, Pho4 (S. cerevisiae) (UniProt P07270).
T1 sequence: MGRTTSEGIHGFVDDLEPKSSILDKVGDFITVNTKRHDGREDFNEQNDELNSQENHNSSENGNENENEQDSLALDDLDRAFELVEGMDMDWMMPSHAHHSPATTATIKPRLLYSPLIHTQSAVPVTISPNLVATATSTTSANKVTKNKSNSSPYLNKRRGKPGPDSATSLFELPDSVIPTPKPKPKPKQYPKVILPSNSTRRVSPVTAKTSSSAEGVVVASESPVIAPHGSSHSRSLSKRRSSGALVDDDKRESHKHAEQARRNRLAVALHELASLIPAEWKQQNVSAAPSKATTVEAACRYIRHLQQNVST
In words: relative binding free energy (BET-seq); higher = weaker binding. The following applies: reference: library average.
Turning to AGGGGCACGTGTACTT, the “relative binding free energy” value was -0.02 kcal/mol. The result for CTATTCACGTGCGTTG reads 0.14 kcal/mol; that for GGTGCCACGTGTTTGA, 0.03 kcal/mol; that for CGTTACACGTGTTCGT, 0 kcal/mol. The result for TGTTGCACGTGTGAGG reads 0.12 kcal/mol. The result for GTGGTCACGTGGGAAC reads 0.03 kcal/mol; that for GTAGTCACGTGGCGTA, 0.02 kcal/mol; that for AAGGGCACGTGAGCGT, 0.13 kcal/mol. Consider GTTAGCACGTGCGGTG, for which the “relative binding free energy” value is 0.05 kcal/mol. Under GATTTCACGTGAGTGG stands 0.45 kcal/mol. Under CTTGTCACGTGCTGTG stands -0.04 kcal/mol; under GGTAGCACGTGTTATT, 0.07 kcal/mol. Under AACATCACGTGGTAGG stands 0.19 kcal/mol. Consider AGCCTCACGTGGAGGT, for which the “relative binding free energy” value is 0.14 kcal/mol. Under TATTGCACGTGTTGAG stands -0.02 kcal/mol; under GGGTACACGTGGTGCG, 0.04 kcal/mol. Under TCAGGCACGTGTGAAG stands 0.07 kcal/mol. With TCGTGCACGTGGGTGC, the “relative binding free energy” value was -0.12 kcal/mol. Under AGTTACACGTGTGCAT stands 0.11 kcal/mol; under TGTCGCACGTGTCTGT, 0.03 kcal/mol. The result for TGAGTCACGTGGTAAG reads 0.11 kcal/mol. The result for AGAGTCACGTGACTGT reads 0.24 kcal/mol; that for GGTAACACGTGGATGG, 0.06 kcal/mol.

Regarding AGGGACACGTGTAATG, the “relative binding free energy” value is -0.05 kcal/mol. For the sequence AGGAGCACGTGGGACA, the “relative binding free energy” value was -0.17 kcal/mol. The result for GGGTTCACGTGAATGG reads 0.37 kcal/mol. For GTGTACACGTGGCGAT, the “relative binding free energy” value is -0.01 kcal/mol.

As for ACTGACACGTGTTTGT, the “relative binding free energy” value is -0.09 kcal/mol. The result for GTTGACACGTGGAAAG reads 0.03 kcal/mol; that for TGTACCACGTGTTTTG, -0.07 kcal/mol; that for AGGCACACGTGTAGTG, 0 kcal/mol.

As to ATTGGCACGTGTACGG, the “relative binding free energy” value was -0.03 kcal/mol. The result for GGGGGCACGTGAATTT reads 0.32 kcal/mol; that for ATGGCCACGTGAAGGT, 0.13 kcal/mol; that for ACAGGCACGTGGTGTA, -0.21 kcal/mol.

As to TCTTGCACGTGTAAAT, the “relative binding free energy” value came to 0.15 kcal/mol.

For the sequence AGAGCCACGTGTTTAT, the “relative binding free energy” value was determined as 0.05 kcal/mol. Under GTGCCCACGTGAGGGT stands 0.17 kcal/mol. The result for TTGCTCACGTGTTTGT reads 0.15 kcal/mol; that for GGTGACACGTGGTTGT, 0.1 kcal/mol; that for CGTCTCACGTGTTGTA, 0.31 kcal/mol. Under TGGGGCACGTGGGCGA stands -0.23 kcal/mol; under TATTGCACGTGGTTCC, -0.01 kcal/mol. For the sequence TGTCACACGTGTGGGA, the “relative binding free energy” value stood at 0.13 kcal/mol. The result for TGTAACACGTGGTTTG reads -0.03 kcal/mol; that for CGGTTCACGTGTTAAT, 0.39 kcal/mol; that for AGGAACACGTGGGAAT, 0 kcal/mol.

Consider GGCGCCACGTGTGATG, for which the “relative binding free energy” value was 0.02 kcal/mol. Under TTGCGCACGTGTAGGC stands 0.07 kcal/mol.

As for TAGGGCACGTGGTGAG, the “relative binding free energy” value is -0.13 kcal/mol. Under TCAGTCACGTGGGCGT stands -0.15 kcal/mol; under TTAGACACGTGTTTAT, -0.01 kcal/mol. The result for TTACTCACGTGTGGGA reads 0.09 kcal/mol. The result for GCAGGCACGTGGATTG reads -0.01 kcal/mol; that for GGAGACACGTGTTAGT, 0.17 kcal/mol; that for ATTGTCACGTGCTCTT, 0.01 kcal/mol. Take AAAAGCACGTGCGTGG: the “relative binding free energy” value is -0.15 kcal/mol. The result for CTGTCCACGTGTGGTG reads 0.03 kcal/mol.

As for CAGTGCACGTGGTGCT, the “relative binding free energy” value was -0.19 kcal/mol. The result for GGTCCCACGTGTGAGT reads 0.17 kcal/mol. The result for CAGTTCACGTGGGCTG reads 0.12 kcal/mol; that for AGGTTCACGTGTTGTT, 0.21 kcal/mol. The result for TTTGACACGTGCTGGT reads 0.02 kcal/mol.

(Values after the BET-seq Pho4 binding data (Le et al. 2018).)
